Over roughly 81,000 sequences, “one-hybrid fitness for binding NBS DNA” has its median near -0.1; the highest 2% begin near 0.36. The list shows a part of the results.
B1: Caulobacter ParB omega fusion; a variant is named by its letters at X, in order, B8GW30 (parent)
chain: MESVVVGEPGMSEGRRGLGRGLSALLGEVDAAPAQAPGEQLGGSREAPIEILQRNPDQPRRTFREEDLEDLSNSIREKGVLQPILVRPSPDTAGEYQIVAGERAWRAAQRAGLKTVPIMVRELDDLAVLEIGIIENVQRADLNVLEEALSYKVLMEKFERTQENIAQTIGKSXSHVANXMRLLXLPDEVQSYLVSGELTAXHARAIAAAADPVALAKQIIEGGLSVRETEALARKAPNLSAGKSKGGRPPRVKDTDTQALESDLSSVLGLDVSIDHRGSTGTLTITYATLEQLDDLCNRLTRGI

Variants of: B1
Assay: one-hybrid fitness for binding NBS DNA (the Noc-binding site; scaled: cognate 1, non-cognate 0); higher = stronger binding
Conditions: with NBS DNA site
How it was run: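 Pre- and post-selection plasmids were Illumina-sequenced, three replicate libraries were pooled, and any variant with under 10 reads was removed. The libraries were Caulobacter ParB with four specificity codons randomised, selected in E. coli USO through a HIS3 reporter whose site is 19 bp from the promoter. Cells grew 48 hours at 37°C on M9 without histidine, with 0.1 mM IPTG and 5 mM 3-AT. Fitness is the log change in variant-to-wild-type read ratio, rescaled against cognate and non-cognate.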

Variant	one-hybrid fitness for binding NBS DNA
PMVD	≤ 0.2
RMGS	0.461
QGQA	≤ 0.2
SNQC	≤ 0.2
RHHG	≤ 0.2
TKPL	≤ 0.2
RYDA	≤ 0.2
HERM	≤ 0.2
TTFA	≤ 0.2
RHMQ	≤ 0.2
KDKW	≤ 0.2
FKTI	≤ 0.2
DREE	≤ 0.2
GIFG	≤ 0.2
STIS	≤ 0.2
FNSY	≤ 0.2
PAHA	≤ 0.2
RFIR	≤ 0.2
TLWT	≤ 0.2
PSPM	≤ 0.2
IGDC	≤ 0.2
SQRA	≤ 0.2
KVMK	≤ 0.2
SPDW	≤ 0.2
GTIT	≤ 0.2

Variant	one-hybrid fitness for binding NBS DNA
MRSC	≤ 0.2
AGLP	≤ 0.2
YHKC	≤ 0.2
DTVR	≤ 0.2
PKKL	≤ 0.2
RAHY	≤ 0.2
PVSD	≤ 0.2
SIMT	≤ 0.2
DRLD	≤ 0.2
TNVI	≤ 0.2
GVPQ	≤ 0.2
FYIR	≤ 0.2
DLTL	≤ 0.2
GATC	≤ 0.2
WPIS	≤ 0.2
TKLV	≤ 0.2
VAIW	≤ 0.2
TYLQ	≤ 0.2
QDQY	≤ 0.2
MTHW	≤ 0.2
QTIM	≤ 0.2
YTIM	≤ 0.2
QPVW	≤ 0.2
KCHG	≤ 0.2
QSIN	≤ 0.2

Variant	one-hybrid fitness for binding NBS DNA
LNFC	≤ 0.2
MLFR	≤ 0.2
GVYG	≤ 0.2
FHMG	≤ 0.2
HQMP	≤ 0.2
MLHG	≤ 0.2
HMIV	≤ 0.2
IRIT	≤ 0.2
FVIE	≤ 0.2
HHLT	≤ 0.2
TGCT	≤ 0.2
QWGA	≤ 0.2
YTPS	≤ 0.2
QPNR	0.236
WRSI	≤ 0.2
KFPI	≤ 0.2
IISE	≤ 0.2
YRLV	≤ 0.2
MQTK	≤ 0.2
ESRR	≤ 0.2
WITF	≤ 0.2
YDLE	≤ 0.2
SPIY	≤ 0.2
QWTN	≤ 0.2
AQNL	≤ 0.2

Variant	one-hybrid fitness for binding NBS DNA
VNTQ	≤ 0.2
ATYK	≤ 0.2
PEAP	≤ 0.2
KRDG	≤ 0.2
TRTP	≤ 0.2
VLPF	≤ 0.2
CCKS	≤ 0.2
QGVH	≤ 0.2
YLPV	≤ 0.2
VALE	≤ 0.2
ETIH	≤ 0.2
HNVS	≤ 0.2
NIDH	≤ 0.2
AHWC	≤ 0.2
GIDF	≤ 0.2
VLFL	≤ 0.2
SVEI	≤ 0.2
RLQG	≤ 0.2
PYNA	≤ 0.2
MKCF	≤ 0.2
WGQC	≤ 0.2
PNCG	≤ 0.2
QPFR	≤ 0.2
KELR	≤ 0.2
YVAM	≤ 0.2

Variant	one-hybrid fitness for binding NBS DNA
SPQV	≤ 0.2
KSVG	≤ 0.2
VKLW	≤ 0.2
GSIL	≤ 0.2
LEAV	≤ 0.2
PSFW	≤ 0.2
TTYI	≤ 0.2
NALW	≤ 0.2
THGR	≤ 0.2
VSGF	≤ 0.2
TKWY	≤ 0.2
PRHF	≤ 0.2
LMMA	≤ 0.2
SDKS	≤ 0.2
RLGS	0.419
TAMT	≤ 0.2
GLKL	≤ 0.2
LTHR	≤ 0.2
RIRQ	≤ 0.2
TLME	≤ 0.2
PYRR	≤ 0.2
KYQA	≤ 0.2
HEVS	≤ 0.2
EYLY	≤ 0.2
QFDR	≤ 0.2

Variant	one-hybrid fitness for binding NBS DNA
LIRC	≤ 0.2
PVLE	≤ 0.2
HFKS	≤ 0.2
SHME	≤ 0.2
MPTL	≤ 0.2
MPLD	≤ 0.2
KRQQ	≤ 0.2
AMCC	≤ 0.2
HMIT	≤ 0.2
TKHA	≤ 0.2
YMPV	≤ 0.2
YWTT	≤ 0.2
CHCG	≤ 0.2
TFPP	≤ 0.2
TVLR	≤ 0.2
HFIG	≤ 0.2
NIYR	≤ 0.2
MFLM	≤ 0.2
VWPP	≤ 0.2
VLRY	≤ 0.2
QFSY	≤ 0.2
YSDR	≤ 0.2
WWES	≤ 0.2
LTYY	≤ 0.2
AHYL	≤ 0.2

Variant	one-hybrid fitness for binding NBS DNA
DDAR	≤ 0.2
SAAR	≤ 0.2
NCCL	≤ 0.2
DMDL	≤ 0.2
RFFM	≤ 0.2
KCND	≤ 0.2
DPGM	≤ 0.2
CTQV	≤ 0.2
GVIV	≤ 0.2
EEVS	≤ 0.2
ESPG	≤ 0.2
PFEG	≤ 0.2
RDIS	≤ 0.2
ICKC	≤ 0.2
RCIN	≤ 0.2
VQLT	≤ 0.2
DPHK	≤ 0.2
IARG	≤ 0.2
ACSM	≤ 0.2
FQHC	≤ 0.2
IKLS	≤ 0.2
MCPM	≤ 0.2
GGRM	≤ 0.2
QGWW	0.228
EGNC	≤ 0.2

Variant	one-hybrid fitness for binding NBS DNA
DKRT	≤ 0.2
SLMC	≤ 0.2
YQPL	≤ 0.2
DAER	≤ 0.2
MLER	≤ 0.2
YNQM	≤ 0.2
CIIC	≤ 0.2
TNTF	≤ 0.2
CDDS	≤ 0.2
PQNF	≤ 0.2
NCFP	≤ 0.2
KELD	≤ 0.2
RNNR	0.381
LLPW	≤ 0.2
LIVM	≤ 0.2
CRSH	≤ 0.2
MARF	≤ 0.2
IIMT	≤ 0.2
QNAY	≤ 0.2
RHKF	≤ 0.2
